# Assay results as given in the BET-seq Pho4 binding data (Le et al. 2018).
# This is one part of the list. The energies were worked out here from pooled read counts, against the library average; single values are noisy.
# Biological target: T1, Pho4 (S. cerevisiae) (UniProt P07270)
# T1 sequence: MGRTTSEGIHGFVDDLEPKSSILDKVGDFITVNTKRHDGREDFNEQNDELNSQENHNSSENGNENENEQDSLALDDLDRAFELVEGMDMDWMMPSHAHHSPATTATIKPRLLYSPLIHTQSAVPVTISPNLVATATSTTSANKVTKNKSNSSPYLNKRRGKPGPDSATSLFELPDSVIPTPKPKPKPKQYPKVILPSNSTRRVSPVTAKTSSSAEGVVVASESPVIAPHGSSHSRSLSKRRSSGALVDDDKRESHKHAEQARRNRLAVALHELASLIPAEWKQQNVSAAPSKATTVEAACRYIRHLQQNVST
# Experiment: relative binding free energy (BET-seq); higher = weaker binding
# Details: reference: library average
row,Sequence,relative binding free energy [kcal/mol]
1,AAGGGCACGTGTGAAT,-0.17
2,AGGCACACGTGGTTAG,-0.08
3,CGTTGCACGTGGTGTG,-0.09
4,TCGGACACGTGGGAGG,-0.01
5,TGCTGCACGTGTCGTT,0.08
6,AGTATCACGTGGCGTG,0.19
7,CTATGCACGTGGGGAT,-0.27
8,GGTGTCACGTGAGGTT,0.37
9,TGTAACACGTGGGATG,0.02
10,GGGATCACGTGGTATT,0.08
11,TGGATCACGTGGTGAC,0.22
12,GGTGGCACGTGATCGG,0.03
13,TGAAGCACGTGAAGTT,0.4
14,ATGTACACGTGTGGGC,0.15
15,TGGCTCACGTGTGTAT,0.32
16,TATCTCACGTGGGTCG,0.14
17,AGGATCACGTGAATTT,0.36
18,GGTTGCACGTGTAAGT,0.02
19,AGTGGCACGTGCTGGA,-0.15
20,TATCACACGTGGTGGT,0.05
21,TTGTACACGTGAATGA,0.22
22,GATAGCACGTGGCTGG,-0.25
23,GTTAGCACGTGAAATT,0.34

row,Sequence,relative binding free energy [kcal/mol]
1,AAGAACACGTGATTTT,0.36
2,GGTGGCACGTGTATTA,0.08
3,TTGTGCACGTGTAATA,0.07
4,TAGATCACGTGCGTTT,0.09
5,TTTTACACGTGTGGTT,0.18
6,GGTTACACGTGATTAG,0.09
7,AATGTCACGTGTAATG,0.07
8,TGAGACACGTGTGATT,0.28
9,GGTATCACGTGCGTGA,0.14
10,TTAAGCACGTGAGTAT,0.03
11,GTAGTCACGTGATGAG,0.27
12,TCCGGCACGTGGGTAT,-0.05
13,GGTTGCACGTGACGTC,0.26
14,CTTAGCACGTGCGGGG,-0.18
15,TGAGTCACGTGTTTTT,0.26
16,TTTTACACGTGAGTGT,0.34
17,GGTTACACGTGGGGCG,0.14
18,ATTGGCACGTGACGGC,-0.01
19,TGGGTCACGTGGGAGA,-0.02
20,AGGGCCACGTGGTAGT,-0.21
21,TGTTCCACGTGTTTAT,0.18
22,TGTGGCACGTGTTGTG,-0.02
23,GTTGGCACGTGGATAA,0.05

row,Sequence,relative binding free energy [kcal/mol]
1,TTTGTCACGTGTCAAT,0.08
2,ATCATCACGTGTGATG,0.21
3,GGTATCACGTGATGTG,0.27
4,GGTAGCACGTGGCTAT,-0.21
5,GCGGGCACGTGGAGAG,-0.17
6,TTTTTCACGTGTCTTG,0.32
7,CGGGACACGTGCGGTA,-0.05
8,AATGTCACGTGTTATG,0.1
9,GGATGCACGTGGGTAG,-0.21
10,ATAATCACGTGGTAGG,0.07
11,GGGATCACGTGGAAGT,0.17
12,GTCGTCACGTGTTGCA,0.21
13,TTGGTCACGTGGTGGA,0.01
14,TTGAGCACGTGTCTAG,-0.12
15,GTGATCACGTGGGTGA,0.03
16,TTAGTCACGTGTCTAT,0.01
17,TTTCTCACGTGTTTAC,0.29
18,GGCTGCACGTGTTTGT,0.02
19,GGTAGCACGTGGCGTA,-0.05
20,AAGTTCACGTGGTCAT,0.32
21,TGAGTCACGTGTTAGC,0.09
22,TGGTACACGTGGGAGT,-0.01
23,TTTATCACGTGGTTTG,0.11

row,Sequence,relative binding free energy [kcal/mol]
1,GGTGTCACGTGTATTT,0.21
2,TGTTTCACGTGGCAGG,0.16
3,AATTTCACGTGGGCGG,0.19
4,CTGGGCACGTGGATGA,-0.05
5,TATTCCACGTGGCTGG,0.08
6,CGGAGCACGTGAGAGT,0.2
7,GGGTACACGTGAGTTC,0.25
8,AGGATCACGTGCTGAG,0.19
9,TGCGACACGTGGAAGT,0.12
10,GTAACCACGTGTGGGT,0.1
11,AGGTTCACGTGTCAGA,0.27
12,TTGTTCACGTGACTTA,0.15
13,GGTGGCACGTGCCGGG,-0.04
14,TTGTACACGTGGTTTC,-0.02
15,CGGTGCACGTGGGCAA,-0.12
16,TTGGACACGTGTTATT,0.11
17,GGTGGCACGTGTGGTA,0.03
18,ATTGTCACGTGTAAGA,0.12
19,TTGATCACGTGTTAGC,0.09
20,GTCAGCACGTGTTGTG,-0.09
21,CTGGTCACGTGGTCTT,0.04
22,AGGCTCACGTGTGGAA,0.21
23,TAGTTCACGTGTAGGC,0.28

row,Sequence,relative binding free energy [kcal/mol]
1,AGGGCCACGTGTCGAG,-0.04
2,AGGTACACGTGGACGT,0.02
3,GATAGCACGTGGTTGC,-0.07
4,TTTAACACGTGGGCGA,-0.14
5,ACGGGCACGTGGGCGT,-0.2
6,GAGAGCACGTGGTGCG,-0.15
7,CAAGGCACGTGGTAGG,-0.19
8,TTAAGCACGTGGTTTT,-0.13
9,ATGCGCACGTGTGGTC,-0.05
10,TAGTGCACGTGGGACT,-0.18
11,TTCTGCACGTGTTATA,-0.11
12,TTATTCACGTGTGTCC,0.29
13,CGTGTCACGTGGCGGG,0.04
14,CTGTGCACGTGCGGGC,0
15,TGGAGCACGTGAATGC,0.23
16,TGGAGCACGTGATGGC,0.08
17,CTTTTCACGTGTAAAG,0.33
18,AGCGTCACGTGAGTAG,0.2
19,CGGGGCACGTGAGACG,0.13
20,ATGCGCACGTGGTATT,-0.13
21,TGGATCACGTGGGACG,0.11
22,TGTGGCACGTGAGAGA,0.09
23,TTGTACACGTGTGAGA,0.2
